Measured values reported in patent US20240115720A1, “ANTIBODY-PYRROLOBENZODIAZEPINE DERIVATIVE CONJUGATE” (MEMORIAL SLOAN KETTERING CANCER CENTER, priority 2021, published 2024).

T1: Histidine-tagged DLL3 antigen (DLL3-His) (Homo sapiens, UniProt Q9NYJ7)
T1 sequence (Q9NYJ7 27-479): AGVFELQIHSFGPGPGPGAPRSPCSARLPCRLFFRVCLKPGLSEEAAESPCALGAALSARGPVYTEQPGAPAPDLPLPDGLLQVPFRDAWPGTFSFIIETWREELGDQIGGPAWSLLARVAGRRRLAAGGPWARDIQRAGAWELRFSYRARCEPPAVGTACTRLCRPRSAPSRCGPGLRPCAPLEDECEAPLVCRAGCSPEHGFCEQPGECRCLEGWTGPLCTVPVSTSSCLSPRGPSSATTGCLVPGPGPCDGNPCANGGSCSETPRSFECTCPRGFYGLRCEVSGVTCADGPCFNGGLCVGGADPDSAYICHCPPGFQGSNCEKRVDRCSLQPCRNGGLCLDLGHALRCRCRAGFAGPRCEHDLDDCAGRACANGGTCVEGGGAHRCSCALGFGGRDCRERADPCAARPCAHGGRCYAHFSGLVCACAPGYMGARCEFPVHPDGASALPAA

T2: DLL3 (Homo sapiens, UniProt Q9NYJ7)
T2 sequence (Q9NYJ7 27-618): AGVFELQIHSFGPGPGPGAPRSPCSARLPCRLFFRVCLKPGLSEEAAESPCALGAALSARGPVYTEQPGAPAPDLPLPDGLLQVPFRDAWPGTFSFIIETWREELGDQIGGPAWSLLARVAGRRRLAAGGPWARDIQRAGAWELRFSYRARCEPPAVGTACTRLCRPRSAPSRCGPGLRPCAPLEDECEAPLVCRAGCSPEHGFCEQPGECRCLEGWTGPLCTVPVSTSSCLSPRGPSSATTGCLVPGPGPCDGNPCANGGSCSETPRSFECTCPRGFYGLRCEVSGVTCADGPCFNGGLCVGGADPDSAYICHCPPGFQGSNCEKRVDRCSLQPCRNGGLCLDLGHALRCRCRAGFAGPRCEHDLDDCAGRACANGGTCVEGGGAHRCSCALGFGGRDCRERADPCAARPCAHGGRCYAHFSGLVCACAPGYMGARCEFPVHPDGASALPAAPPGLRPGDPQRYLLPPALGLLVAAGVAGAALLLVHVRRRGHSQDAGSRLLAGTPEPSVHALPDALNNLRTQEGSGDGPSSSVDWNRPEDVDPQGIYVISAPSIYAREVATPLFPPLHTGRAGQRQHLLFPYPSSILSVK

T3: DLL1 (Homo sapiens, UniProt O00548)
T3 sequence (O00548 18-723): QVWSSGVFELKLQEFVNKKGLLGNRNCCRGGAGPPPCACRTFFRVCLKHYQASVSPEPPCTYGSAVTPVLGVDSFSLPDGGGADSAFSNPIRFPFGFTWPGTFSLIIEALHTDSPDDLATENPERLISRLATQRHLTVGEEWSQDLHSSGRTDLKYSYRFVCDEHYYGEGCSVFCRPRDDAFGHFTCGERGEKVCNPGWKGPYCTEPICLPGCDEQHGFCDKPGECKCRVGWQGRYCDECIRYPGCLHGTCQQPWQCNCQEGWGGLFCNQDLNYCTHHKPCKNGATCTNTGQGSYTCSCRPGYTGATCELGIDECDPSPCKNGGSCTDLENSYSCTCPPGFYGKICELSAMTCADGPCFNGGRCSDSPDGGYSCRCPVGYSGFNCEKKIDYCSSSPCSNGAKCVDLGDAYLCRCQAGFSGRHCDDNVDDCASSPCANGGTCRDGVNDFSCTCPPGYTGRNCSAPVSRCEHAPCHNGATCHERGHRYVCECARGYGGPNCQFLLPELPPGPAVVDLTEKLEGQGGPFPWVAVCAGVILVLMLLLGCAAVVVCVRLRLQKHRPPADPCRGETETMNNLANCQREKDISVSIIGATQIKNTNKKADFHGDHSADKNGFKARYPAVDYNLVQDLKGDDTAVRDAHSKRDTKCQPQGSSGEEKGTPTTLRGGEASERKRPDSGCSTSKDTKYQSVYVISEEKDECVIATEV

B1: 6-G23-F: anti-DLL3 monoclonal antibody, VH SEQ ID NO: 32 and VL SEQ ID NO: 37 (antibody, V domains shown)
VH: QVQLVQSGAEVKKPGASVKVSCKASGYTFTSYYIHWVRQAPGQGLEWMGIIDPSDGSTNYAQKFQGRVTMTRDTSTSTVYMELSSLRSEDTAVYYCARDREYNYYGLDVWGQGTTVTVSS
VL: [left out - about 100 residues]PTFGQGTKVEIK
B2: 10-O18-A: anti-DLL3 monoclonal antibody, VH SEQ ID NO: 22 and VL SEQ ID NO: 27 (antibody, V domains shown)
VH: QVQLQESGPGLVKPSETLSLTCTVSGGSINSYYWSWIRQPPGKGLEWIGYIFYSGITNYNPSLKSRVTISLDTSKNQFSLKLSSVTAADTAVYYCARIGVAGFYFDYWGQGTLVTVSS
VL: [left out - about 100 residues]

Columns and labels:
[1] = biological target: T1, Histidine-tagged DLL3 antigen (DLL3-His); assay: Pairwise epitope binning, Carterra array SPR; conditions: pairwise competition for binding to DLL3-His
Method: The panel of purified anti-DLL3 monoclonal antibodies and the reference monoclonal antibody were subjected to pairwise epitope binning on a Carterra® array surface plasmon resonance (SPR) assay platform (Carterra® Inc., Salt Lake City UT) where each monoclonal antibody was tested for the capture of Histidine-tagged DLL3 antigen (DLL3-His), and also for competing with every other antibody in the panel for the binding to DLL3-His. The antibodies were immobilized on a HC200M chip (ligand) through standard amine coupling techniques by the print array method. Then in each cycle antigen was injected across the entire array followed by a single antibody (analyte). At the end of each cycle the surface was regenerated to remove antigen and analyte before a new cycle started. As shown in the Table below, three different bins were identified with the panel with 7-I1-B and 2-C8-A mapping to bin 2 while 6-G23-F was in bin 3 and 10-O18-A was in bin 1.

[2] = biological target: T2, DLL3; assay: Selectivity of binding among delta-like ligands (FIG. 11)
[3] = biological target: T3, DLL1; assay: as above
[4] = biological target: DLL4 (Homo sapiens, UniProt Q9NR61); assay: as above
DLL4, sequence (Q9NR61 27-685): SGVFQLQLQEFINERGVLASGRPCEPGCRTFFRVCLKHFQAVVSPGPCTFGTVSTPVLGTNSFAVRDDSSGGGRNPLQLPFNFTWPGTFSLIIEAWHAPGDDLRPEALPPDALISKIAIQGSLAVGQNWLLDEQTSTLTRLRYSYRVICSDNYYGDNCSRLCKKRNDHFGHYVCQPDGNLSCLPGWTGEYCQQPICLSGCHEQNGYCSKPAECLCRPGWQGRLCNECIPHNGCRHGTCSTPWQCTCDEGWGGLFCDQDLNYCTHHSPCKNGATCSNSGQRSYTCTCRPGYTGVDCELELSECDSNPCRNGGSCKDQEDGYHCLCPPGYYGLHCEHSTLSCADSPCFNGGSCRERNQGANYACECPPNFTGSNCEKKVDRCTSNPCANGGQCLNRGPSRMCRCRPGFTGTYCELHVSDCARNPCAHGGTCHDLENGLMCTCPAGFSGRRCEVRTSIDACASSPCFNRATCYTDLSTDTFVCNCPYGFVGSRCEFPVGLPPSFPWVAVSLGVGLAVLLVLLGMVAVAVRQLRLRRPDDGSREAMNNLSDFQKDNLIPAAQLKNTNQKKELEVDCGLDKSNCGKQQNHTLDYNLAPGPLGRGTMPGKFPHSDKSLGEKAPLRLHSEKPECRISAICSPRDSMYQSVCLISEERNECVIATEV

[5] = test system: 293 (negative control); assay: Flow cytometry binding to 293 cells (negative control); conditions: 10 μg/ml
Method: The four monoclonal antibodies (6-G23-F, 2-C8-A, 7-I1-B and 10-O18-A) were tested for their ability to bind to mouse and cynomolgous DLL3 as well as endogenous human DLL3 by flow cytometry. For this purpose, HEK293 cells were transfected with plasmid DNA encoding full-length human, mouse or cynomolgous DLL3 and used in the experiment. Briefly […] transfected HEK293 cells or NCI-H82 primary cells were added in FACS buffer PBS 0.5% BSA to the wells of a 96 well U bottom plate and purified monoclonal added to 10 μg/ml. After 30 minutes incubation at 4° C. the cells were washed 3 times in FACS buffer and incubated with a PE labelled F(ab)2 anti-mouse IgG H and L 2nd stage. After another 30 minutes incubation at 4° C. the cells were washed three times in FACS buffer and analyzed on the flow cytometer. Data are presented at the ratio of the Mean Fluorescent Intensity for the monoclonal divided by the background staining with the 2nd stage.

[6] = biological target: T2, DLL3; assay: 4/37 internalization assay (staining at 4° C. versus 37° C., flow cytometry); type: cell-based; parameters: endogenous in cells; host or cells: NCI-H82; conditions: NCI-H82 cells, compared with reference monoclonal antibody SC16
Method: The four monoclonal antibodies (6-G23-F, 2-C8-A, 7-I1-B and 10-O18-A) were compared for their ability to internalize DLL3 by comparing the staining at 4° C. with that at 37° C. A reference monoclonal antibody SC16, which is known to internalize via DLL3 and to have ADC activity, and which was previously reported in the literature, was used as the positive control for internalization. NCI-H82 cells in exponential growth were harvested with trypsin/EDTA, washed once in RPMI containing 10% fetal calf serum (FCS) and resuspended in DMEM supplemented with 10% FCS at 2×10^7 cells/ml. 100 μl (2×10^6 cells) were added to U bottom 96 well plates. The test monoclonal antibodies (6-G23-F, 2-C8-A, 7-I1-B or 10-O18-A) or the reference monoclonal antibody were added to separate wells to give a final concentration of 10 μg/ml in duplicate plates. […] After 30 minutes incubation at 4° C. the cells were washed three times in cold wash buffer and either fixed in PBS 0.5% paraformaldehyde and analyzed by flow cytometry within 48 hours. The mean fluorescent intensity (MFI) ratios calculated by dividing the MFI obtained from the control plate (which incubated with the antibodies at 4° C.) by the corresponding MFI obtained from the experimental plate (which incubated with the antibodies at 37° C.) was taken as a relative measure of internalization. […]

[7] = test system: NCI-H82 cells; assay: Fab ZAP assay (saporin toxin delivery, cytotoxicity-based internalization); parameters: species or system human; conditions: Fab ZAP 4.4 nM, 3-4 days, Cell Titre Glow
[8] = biological target: T2, DLL3; assay: Quenching Internalization Assay (F(ab) Dy650-QC1); type: cell-based; parameters: NCI-H82 cells in exponential growth were harvested with trypsin/EDTA; endogenous in cells; host or cells: NCI-H82; conditions: NCI-H82 cells, 4 hours at 37° C.; reference monoclonal set at 100% internalization

| Molecule | Epitope Bin [1] | binding to DLL3 [2] | binding to DLL1 [3] | binding to DLL4 [4] | 293 (negative control) (ratio of MFI for the monoclonal divided by background staining with the 2nd stage) [5] | ability to internalize DLL3 [6] | FAB ZAP % SC16 Max Killing [7] | Dy light Dy658 Fluorescence (% of the Control Reference Monoclonal Antibody) [8] |
| --- | --- | --- | --- | --- | --- | --- | --- | --- |
| B1 | 3 | selectively bind DLL3 | not DLL1 or DLL4 | not DLL1 or DLL4 | 1.32 | able to internalize on binding DLL3 but not to the extent of the reference monoclonal antibody |  |  |
| B2 | 1 | selectively bind DLL3 | not DLL1 or DLL4 | not DLL1 or DLL4 | 0.60 | able to internalize on binding DLL3 but not to the extent of the reference monoclonal antibody | 88.0% | 62.2% |
